# Source: ChEMBL document CHEMBL4888484, “Replenishing the malaria drug discovery pipeline: Screening and hit evaluation of the MMV Hit Generation Library 1 (HGL1) against asexual blood stage Plasmodium falciparum ,using a nano luciferase reporter read-out” (2022)
# About 540 (0.36%) of roughly 150,000 compounds showed an effect of 50% or more. The list shows a part of the results.
# Tested on: Plasmodium falciparum
# Test: Primary screen in NF54 nanoGlo assay, in single point, at 2uM, 72h; a lower Z score goes with more inhibition
# Format: functional, Erythrocyte
# Details: timepoint 72 hour
Structure (SMILES),% Inhibition [%],Z score
CC1CC(NC(=O)Nc2cnn(C)c2)CCN1Cc1ccccc1 (stereo unspecified),-7,0.71
NC(=O)CCNC(=O)Nc1cccc(N)c1,24,-2.68
Cc1ccc(NC(=O)N(C)Cc2cnc(N)nc2)cc1C(C)C,-16,1.76
CCOc1ccc(CCNC(=O)CCCn2ccc3cc(S(=O)(=O)N4CCCC4)ccc32)cc1,13,-2.27
CC(C)NC(=O)c1ccc(NCCNC(=O)OC(C)(C)C)c(N)c1,1,-0.15
CN1CCC(NC(=O)c2cc(C3CC3)on2)C1c1ccccc1 (stereo unspecified),34,-3.9
CCCNC(=O)N1CCC[C@H](Oc2nc(CC)nc3c2CCOCC3)C1,-16,2.54
CCC(CC)c1nnc(NC(=O)CCCn2cnc3c(C)cccc3c2=O)s1,-2,0.43
CCCn1ccnc1-c1nccn1-c1ccccc1CCO,14,-1.88
Cc1ccc(C)c(C(=O)c2ccccc2C(=O)N2CCC3(CC2)NC(=O)NC3=O)c1,-7,1.37
COCC1(NC(=O)Nc2ccccc2-c2nnnn2C(C)C)CCC1,-1,0.11
c1ccc2c(c1)OC[C@@H](c1csc3ncnc(N4CCCCC4)c13)O2,-7,1.01
CCCN(CCO)C(=O)NCc1cc(C#N)ccc1F,-9,1.57
COc1ccc2c(c1)N(Cc1nc(C)cs1)CCO2,-23,2.33
Cc1ccc(-n2[nH]c(C(=O)N3CCO[C@@H](CC(F)(F)F)C3)cc2=O)cc1,1,-0.08
CC(C)(C)OC(=O)N1CCCCC1C(=O)N1CCOC(c2ccccc2)C1 (stereo unspecified),-11,1.71
O=C(Nc1ccccc1)NC1CCC2OCCOC2C1 (stereo unspecified),-3,0.57
CCN(CCOc1ccccc1F)C(=O)COc1cccnc1,7,-0.93
Cc1cc(C(=O)N[C@@H](C)C2(N3CCOCC3)CCCC2)[nH]n1,-3,0.32
CCn1cnnc1CNc1ccccn1,-5,0.47
COc1ccccc1[C@@]1(CC(=O)N(C)Cc2nonc2C)CC(=O)N(C2CCCC2)C1=O,8,-1.16
Cc1ccc2c(c1)[nH]c(=O)c1c(C(=O)NCc3c(C)nn(C)c3C)nnn12,7,-1.26
CCC(NC(=O)c1c[nH]c2ccc(OC)cc2c1=O)[C@H]1C[C@@H](O)C1 (stereo partly specified),-17,3.31
C[C@@H](c1ccccc1)N(Cc1nc(C(=O)NCc2ccco2)co1)Cc1ccccc1C(F)(F)F,-9,1.26
C[C@@]1(CO)CN(C(=O)c2ccc(Cl)cc2)C[C@@H]2CN(C(=O)c3ccccc3)CCN21,5,-0.69
Cc1cnn([C@@H](C)CNC(=O)c2cncn2C)c1,8,-1.62
CC(C)c1ccc(CCC(=O)NC2CC3CCC2C3)cc1 (stereo unspecified),-10,1.14

Structure (SMILES),% Inhibition [%],Z score
Cc1ccc(CNC(=O)Cn2cnc3nc(N4CCCCC4)sc3c2=O)cc1,-5,0.98
CCOC(=O)c1noc2ncnc(NCCc3ccccc3)c12,2,-0.38
Cc1c(C(=O)NC[C@H]2COC3(CCCCCC3)O2)cnn1C,-15,2.85
COc1nc2c(cc1CNC(=O)[C@H]1CC13CCCC3)C(=O)N(C1CCCC1)C2,1,-0.24
O=C1[C@H](c2ccc(F)cc2)N(Cc2ccccc2)C(=O)CN1C1CCCCCC1,-1,0.22
CC(=O)N(CC(=O)N1CCc2sccc2[C@@H]1COc1ccc(C(C)C)cc1)CC1CC1,2,-0.27
Cc1ccc(-c2noc(CCN(C(=O)c3ccco3)C3CCCCC3)n2)cc1,-3,0.37
Cn1c2c(c(=O)n3ncc(C(=O)NC4CCCCC4)c13)CN(Cc1ccccc1)CC2,0,0.01
CCCN(C(=O)CC1CCN(C(=O)OC(C)(C)C)CC1)c1cccnc1,-8,0.84
COc1ccc(CNC(=O)N2CCN(c3c(C)nn(-c4ccccc4)c3C)CC2)cc1OC,-14,2.59
COCCC[C@H]1CCCCN1S(=O)(=O)c1ccc(-c2cc(C)no2)o1,3,-0.64
c1ccc(-n2cnc(-c3nc(-c4cnccn4)no3)n2)cc1,-17,1.95
C[C@H](NCc1ccc2c(c1)OCO2)c1cccnc1,-8,0.83
Cc1cccc(C(=O)N2CCn3c(nn(CC(C)C)c3=O)[C@H]2c2ccccc2)n1,0,-0.08
Cc1nc(O)c(Br)cc1C(=O)N1CC2(CC2)C1,1,-0.13
O=C(Nc1ccc(Br)cc1F)[C@H]1CCCN(c2cnc3ccccc3n2)C1,-13,1.57
O=C1CCc2cc(C(=O)N3CC(C4CCC4)C3)ccc2N1,-15,1.95
O=C(c1ccccc1)N1CC[C@H](Nc2ncccc2Cl)[C@@H](O)C1,-9,1.31
Cn1cc([C@H]2CN(C(=O)CC3(C(F)(F)F)CC3)CC2(C)C)cn1,12,-1.48
COCCn1cnc2c(-c3ccccc3)cn(CC(=O)N3CCN(c4ccccc4F)CC3)c2c1=O,1,-0.11
CCNc1nc(C(=O)NCCNS(=O)(=O)CC)cs1,-10,0.98
CN1CCN(CC(=O)Nc2cccc(S(=O)(=O)N3CCCC3)c2)CC1,-13,1.34
Cc1nc(O)c(C(=O)NCCn2ccnc2)cc1Br,3,-0.47
COCCn1cnc2cc(NC(=O)C3CCCCC3)cc(C(=O)N3CCC[C@H](O)C3)c21,9,-1.15
CC(C)CS(=O)(=O)N1CCC(C#N)CC1,-29,3.68
COc1ccc2c(c1)N(S(=O)(=O)c1cn(C)nc1C)CCO2,-6,0.98
